The campaign covered roughly 45,000 compounds. About 65 (0.1%) were called active. Calls follow the shape of the dose curve; as a rule, active = well fitted activation curve with a large enough effect; inconclusive = small, poorly fitted or top-dose-only effect; inactive = no such curve, though single readings can be large or run the other way. The list shows a part of the results.

This assay addresses Galactocerebrosidase (Homo sapiens) (UniProt P54803). Put plainly: A Novel Cell-Based Assay to Identify Small Molecules for B -Galactocerebrosidase. Also: 0% is about no effect; nearly all actives have a fitted effect of over 65% in size. The following applies: 145M-Twi-hGALC-G270D cells (Twitcher mouse brain line with human GALC G270D), HMU-beta-Gal fluorescence, 48 h; series mostly up to 57.5 µM; activation: at the top concentration. Put shortly: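 Brain-derived Twitcher mouse 145M-Twi cells stably expressing human GALC-G270D or wild-type GALC, treated live, then residual GALC activity read by fluorescence of HMU-b-Gal substrate (0.1 mM final) in citrate-phosphate buffer pH 5.2 with sodium taurocholate. Signal increase indicates enhancement.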
UniProt P54803, sequence (P54803 whole entry, looked up): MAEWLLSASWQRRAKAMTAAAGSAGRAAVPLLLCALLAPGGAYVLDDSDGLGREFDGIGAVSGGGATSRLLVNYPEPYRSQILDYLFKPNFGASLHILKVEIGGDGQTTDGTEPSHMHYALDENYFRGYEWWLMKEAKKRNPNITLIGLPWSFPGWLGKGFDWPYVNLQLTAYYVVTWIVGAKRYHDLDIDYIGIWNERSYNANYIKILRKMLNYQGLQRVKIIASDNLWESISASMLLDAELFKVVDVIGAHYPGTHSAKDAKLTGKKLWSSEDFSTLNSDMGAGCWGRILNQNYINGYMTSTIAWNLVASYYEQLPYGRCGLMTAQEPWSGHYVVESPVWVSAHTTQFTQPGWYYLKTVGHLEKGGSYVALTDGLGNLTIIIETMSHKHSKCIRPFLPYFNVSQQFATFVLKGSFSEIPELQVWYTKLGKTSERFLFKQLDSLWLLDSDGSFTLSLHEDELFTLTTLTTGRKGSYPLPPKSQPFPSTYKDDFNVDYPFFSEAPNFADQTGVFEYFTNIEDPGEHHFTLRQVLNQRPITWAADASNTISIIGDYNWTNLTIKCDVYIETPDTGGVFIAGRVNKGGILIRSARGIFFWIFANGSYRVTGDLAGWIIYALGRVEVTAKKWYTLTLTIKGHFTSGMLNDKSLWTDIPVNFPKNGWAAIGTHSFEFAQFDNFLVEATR
As to `CCOc1ccccc1NC(=O)Cn1c(=O)n(CCCC(=O)NCCc2ccc(C)cc2)c(=O)c2ccccc21`, the “activation” value is inactive: -11.7%.
Then `COc1ccc(-c2c(C)c3cc(OC(=O)N4CCOCC4)ccc3oc2=O)cc1`, with inactive: -13.5%.
As for `Cc1ccc(N2CC(NC(=O)c3ccc(S(=O)(=O)N4CCCC4)cc3)CC2=O)cc1` (centres undefined), the “activation” value is inactive: -9.39%.
Then `CC(C)(C)OC(=O)N1CCC(c2c(C(=O)NCCCN3CCc4ccccc4C3)cnn2-c2ccccc2)CC1`, with inactive: -20.7%; and `CCc1ccc(CNC(=O)CN(c2ccc(C)cc2)S(=O)(=O)N(C)C)cc1`, with inactive: -33.2%; and `N#Cc1c(-n2ncnc2-c2ccc(Br)cc2)sc2c1CCCCC2`, with inactive: -17.6%.
Then `CSc1ccc(CNC(=O)C2CCN(c3nnc(-n4cccc4CNc4ccc(C)cc4)s3)CC2)cc1`, with inactive: -26.5%.
Then `COc1ccc(OC)c(CCNC(=O)C2CCN(c3ncnc4c3nc3n4CCCCC3)CC2)c1`, with inactive: 1.66%; and `O=C(Cn1cc(SCc2ccccc2)c2ccccc21)N1CCCCC1`, with inactive: 1.62%.
Consider `COc1ccc(-c2nc(C)c(CCNC(=O)C(=O)Nc3c(C)cccc3C)s2)cc1OC`, for which the “activation” value was inactive: -28.7%.
Then `Nc1nc(N)c(S(=O)(=O)c2ccccc2)c(Nc2ccc(Br)cc2)n1`, with inactive: -28.7%; and `COc1cccc(-c2cc(C(F)(F)F)nc(-n3nc(C)c(Br)c3C)n2)c1`, with inactive: -13.4%.
As to `COc1ccc(C(=O)NCC(c2cccnc2)N2CCN(c3ccc(F)cc3)CC2)cc1` (centres undefined), the “activation” value was inactive: -15.9%.
On to `O=C(NCC(c1ccc(Cl)cc1)N1CCCCC1)c1ccc(F)cc1` (centres undefined), for which the “activation” value is inactive: -13.1%.
On to `Cc1cccc(NC(=O)C(=O)c2cc(C)n(-c3ccccc3)c2C)c1C`, for which the “activation” value was inactive: -19.8%.
On to `CCOc1cccc2cc(-c3nc4sc(C(=O)Nc5ccc(C)cc5)c(C)c4c(=O)[nH]3)c(=O)oc12`, for which the “activation” value was inactive: -13.3%.
Then `COc1ccccc1CNC(=O)c1cccn1-c1nnc(N2CCCC2)s1`, with inactive: -11.7%; and `Cc1cccc(NC(=O)Cn2nc(-c3ccc(Cl)cc3)c3ccccc3c2=O)c1`, with inactive: -13%.
On to `Cc1ccc(-n2c(SCc3ccccc3F)nc3[nH]ncc3c2=O)cc1C`, for which the “activation” value was inactive: -13.9%.
Then `O=C(CSc1ccc2nc(-c3ccccc3)cn2n1)Nc1ccccc1C(F)(F)F`, with inactive: -5.05%; and `Cc1cccc(NC(=O)CSc2nc3c(c(=O)[nH]2)CN(Cc2ccc4c(c2)OCO4)CC3)c1C`, with inactive: -20.9%.
For `CC(=O)c1cc(-c2ccccc2)n(CC(=O)NC2CCCCCC2)c1C`, the “activation” value was inactive: -15.7%.
Then `CN(C1CCCCC1)S(=O)(=O)c1ccc(C(=O)Nc2sc3c(c2C(N)=O)CC(C)(C)NC3(C)C)cc1`, with inactive: -31.1%.
As for `COc1ccc(N2CCN(C(=O)CSCc3nc(-c4ccccc4Cl)oc3C)CC2)cc1`, the “activation” value was inactive: 7.64%.
Then `CCc1nc(-c2cc(S(=O)(=O)N3CCN(c4ccc(F)cc4)CC3)ccc2OC)no1`, with inactive: -10.2%.
Then `O=C(NCCc1ccc(Cl)cc1)c1cccn1-c1nnc(N2CCCCC2)s1`, with inactive: -10.9%.
Then `Cc1cc(O)c(C(c2cccc(F)c2)N2CCC(C)CC2)c(=O)n1Cc1ccco1` (centres undefined), with inactive: -14.3%; and `O=C(Cn1c(=O)n(Cc2cccs2)c(=O)c2cccnc21)Nc1ccccc1F`, with inactive: -15.3%; and `CCOC(=O)N1CCc2c(sc3c2c(=O)n(Cc2ccccc2)c(=O)n3CC(=O)Nc2c(C)cccc2C)C1`, with inactive: -22.8%.
Regarding `O=C(NCc1cccc(F)c1)c1ccc(CS(=O)c2ccccc2Cl)o1` (centres undefined), the “activation” value was inactive: 8.32%.
Then `Cn1c(=O)c(=O)n(C)c2cc(S(=O)(=O)N3CCN(c4ccccc4F)CC3)ccc21`, with inactive: -3.55%; and `CCc1ccc(-n2c(=O)c3cccnc3n2CC(=O)NCc2ccc(F)cc2)cc1`, with inactive: -21.8%; and `Cc1cccc(C)c1OCC(=O)Nc1nonc1-c1ccc(Br)cc1`, with inactive: -11.1%.
Then `Cc1ccc(C(=O)Nc2ccc(-n3c(C)nc4ccccc4c3=O)cc2)cc1[N+](=O)[O-]`, with inactive: -12.3%; and `COc1ccc(OC)c(NC(=O)Cn2c(=O)oc3cc(S(=O)(=O)NCc4ccccc4)ccc32)c1`, with inactive: -10.8%; and `O=C(NCC12CC3CC(CC(C3)C1)C2)c1cc2nc(-c3ccc(Cl)cc3)cc(C(F)(F)F)n2n1`, with inactive: -1.61%.
Then `O=C(Nc1nc2n(n1)C(c1ccc(F)cc1)C=C(c1ccc(Cl)cc1)N2)c1ccco1` (centres undefined), with inactive: -6.03%; and `CCOC(=O)c1ccc(N2C(=O)c3n[nH]c(-c4cccs4)c3C2c2ccc(O)c(OC)c2)cc1` (centres undefined), with inactive: -9.82%; and `CCN(C(=O)CCS(=O)(=O)c1cccc2nsnc12)c1cccc(C)c1`, with inactive: -11.4%.
Regarding `CCN(C(=O)c1cc2c(s1)-c1c(C)cccc1OC2)c1cc(C)ccc1C`, the “activation” value was inactive: -14.5%.
Then `CCOc1ccc2oc(=O)cc(CN3CCN(c4ccc(OC)cc4)CC3)c2c1`, with inactive: 0.868%.
With `COc1ccc(-n2c(=O)c3ccccc3n(Cc3ccc(F)cc3Cl)c2=O)cc1OC`, the “activation” value is inactive: -6.76%.
Take `Clc1cccc(-c2nnc(CN3CCN(c4ccccn4)CC3)o2)c1`: the “activation” value was inactive: -29.6%.
Then `COc1ccc(NC(=O)C(CC(C)C)NC(=O)C2CCCCC2)c(OC)c1` (centres undefined), with inactive: -6.22%.
Then `CCc1nc2ccc(C(=O)NCCc3ccc(SC)cc3)cc2nc1CC`, with inactive: -19.9%; and `Cc1cc(S(=O)(=O)Nc2cc3c(cc2N2CCOCC2)n(C)c(=O)n3C)ccc1F`, with inactive: -8.05%; and `CCOc1ccc(CNC(=O)C2CCN(C3=NS(=O)(=O)C(c4ccc(C)cc4)=C3CC)CC2)cc1`, with inactive: -1.86%.
Then `COc1cc(NC(=O)c2cc(-c3ccccc3O)no2)cc(OC)c1OC`, with inactive: -10.5%.
Consider `CC(=O)Nc1nonc1-c1nnc(SCC(=O)Nc2ccccc2Cl)n1C`, for which the “activation” value is inactive: -16%.
Then `COc1ccc(C2CC(=O)c3cc(-c4nc(-c5ccc(Cl)cc5)cs4)c(=O)[nH]c3C2)cc1` (centres undefined), with inactive: -14.5%; and `COc1ccc(NC(=O)C2CCN(C(=O)c3sc4nc[nH]c(=O)c4c3C)CC2)c(OC)c1`, with inactive: -2.22%; and `Cc1cccc(N2CCN(c3nc4ccccc4c4nc(-c5ccccc5)nn34)CC2)c1C`, with inactive: -20.3%.
Take `CC(=O)OCc1cnc(C)c2oc(=O)c(C(=O)Nc3ccc(F)cc3C)cc12`: the “activation” value is inactive: -2.12%.
In the case of `CCN(CC)S(=O)(=O)c1ccc2c(c1)N(CC(=O)N1CCN(c3cc(Cl)ccc3C)CC1)C(=O)CO2`, the “activation” value was inactive: -11.9%.
Then `CCc1ccccc1N1CC(c2nnc(NC(=O)c3ccco3)s2)CC1=O` (centres undefined), with inactive: -9.31%; and `CCOc1ccccc1NC(=O)CSC1=Nc2ccccc2C2=NC(CC(=O)NC3CCCCC3)C(=O)N12` (centres undefined), with inactive: -17.4%.
Then `COc1ccc(OC)c(NC(=O)CSC2=Nc3ccccc3C3=NC(CCC(=O)NCc4ccco4)C(=O)N23)c1` (centres undefined), with inactive: -4.59%; and `CN(C)S(=O)(=O)c1ccc2c(c1)c(=O)c(C(=O)N1CCN(c3cccc(Cl)c3)CC1)cn2C`, with inactive: -19.1%.
Then `O=S1(=O)c2ccccc2N(Cc2ccc(Cl)cc2F)c2ccccc21`, with inactive: -7.16%.

These data come from PubChem BioAssay AID1159614 (National Center for Advancing Translational Sciences (NCATS), 2016).
